According to the supplement of paper PMC10126150:
Sequences with one replicate were seen in a single cluster, so their values are uncertain.

Tested on: ATP
Experiment: switch fluorescence ratio, 500 uM ATP over buffer (Cy3 cluster intensity, sum of 5 cycles each) (fold (ratio)); higher = stronger signal-on switching upon ATP binding; sequences stand for … in TCGTCGGCAGCGTCAGATGTGTATAAGAGACAGTTTTTTTTTTTTTTTTTTTTTTTTT…TC
Conditions: aptamer strand: ATP DNA aptamer (quencher-CACCTGGGGGAGTATTGCGGAGGAAGG + anchor), 100 nM annealed; ATP concentration: 500 uM; one replicate
Procedure, shortened: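 Imaging in selection buffer was followed by imaging after 15 min with 500 uM ATP at 22 °C, for Cy3-labelled switching-strand clusters annealed to 100 nM quencher-labelled ATP aptamer on a modified Illumina MiSeq flow-cell. Five of these buffer/ATP cycles ran, separated by NaOH stripping and re-annealing. The fluorescence ratio per cluster is summed target-cycle over summed buffer-cycle Cy3 intensity, averaged per switch-domain sequence; clusters outside 100-1000 RFU were removed.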
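Note: ATP exposure 15 min at 22 °C before imaging.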

GAAGTCAACT
switch fluorescence ratio: 0.999

TAGTGACGGC
switch fluorescence ratio: 1.05

GGCTCTAATT
switch fluorescence ratio: 1.02

TTCAAATAGG
switch fluorescence ratio: 1

GTAATACTCA
switch fluorescence ratio: 3.83

ATGGGAACGT
switch fluorescence ratio: 0.951

GGCCCCCCT
switch fluorescence ratio: 1.08

GATTAGTGAG
switch fluorescence ratio: 0.961

CATGAGCAAC
switch fluorescence ratio: 1.95

AGTCAGGTGT
switch fluorescence ratio: 2.49

CTAAATACAG
switch fluorescence ratio: 1.04

CAGGGGGAGT
switch fluorescence ratio: 0.957

CCTAGTCACC
switch fluorescence ratio: 1.04

GCCTTTTAAT
switch fluorescence ratio: 1.02

GCCTAATCGA
switch fluorescence ratio: 0.982

AAGCTAAACG
switch fluorescence ratio: 1

TTCGGCGGGG
switch fluorescence ratio: 1.03

CCAACTCGAA
switch fluorescence ratio: 1.07

GACCTCGTAG
switch fluorescence ratio: 0.931

TGAAAGGCAT
switch fluorescence ratio: 1.03

AATCGGAACA
switch fluorescence ratio: 0.963

GGCGATGCAT
switch fluorescence ratio: 1.12

TTGCCGACGT
switch fluorescence ratio: 1.03

TATGACTTCC
switch fluorescence ratio: 2.59

CAATCAAGAT
switch fluorescence ratio: 1.01

AATATTGCAT
switch fluorescence ratio: 1.01

CGTTGCTGCG
switch fluorescence ratio: 0.926

TTATCCGCCC
switch fluorescence ratio: 1.91

ATAAGTTAT
switch fluorescence ratio: 0.983

ATGGTCTGAG
switch fluorescence ratio: 0.988

CTCCTCGGAA
switch fluorescence ratio: 2.52

GTCTGAAGGT
switch fluorescence ratio: 0.967

CTTATAAGGT
switch fluorescence ratio: 0.992

CTGTGGTCGG
switch fluorescence ratio: 0.957

GCACGGTGC
switch fluorescence ratio: 1.04

AAGATAACCG
switch fluorescence ratio: 1.03

TTAAGACATG
switch fluorescence ratio: 0.992

CCCTCAAAAG
switch fluorescence ratio: 1.11

ATGAGAAACT
switch fluorescence ratio: 1

TTATGGCGGA
switch fluorescence ratio: 1

GTGTGTATCC
switch fluorescence ratio: 1.01

CAGTGCGATG
switch fluorescence ratio: 0.964

AGCTAAGATT
switch fluorescence ratio: 0.99

TGAATGCCGC
switch fluorescence ratio: 0.982

CGTACTTTTA
switch fluorescence ratio: 0.979

TAACTCACCT
switch fluorescence ratio: 1.28

CACAAGGC
switch fluorescence ratio: 1.34

TGTGGCTGG
switch fluorescence ratio: 0.989

CTCGAGCGGA
switch fluorescence ratio: 0.993

CTGAAAAACT
switch fluorescence ratio: 0.998

GGGCTATATG
switch fluorescence ratio: 1.06

GAGATTTTGG
switch fluorescence ratio: 0.987

AATGGTTGGC
switch fluorescence ratio: 1.05

TAGGCTTTTA
switch fluorescence ratio: 1.02

TCGGTACAGC
switch fluorescence ratio: 1

AATTTGGTGG
switch fluorescence ratio: 0.97

GTGTACGTGC
switch fluorescence ratio: 1.04

AAAATGCCAG
switch fluorescence ratio: 0.97

TTAATACCAC
switch fluorescence ratio: 1.05

CTTATTCAC
switch fluorescence ratio: 0.976

TGGCTCGACG
switch fluorescence ratio: 0.992

TTATCCAAGG
switch fluorescence ratio: 1.05

ACCTTGTTCT
switch fluorescence ratio: 1.01

CATTCCGATC
switch fluorescence ratio: 1.6

GCCGAGGCCA
switch fluorescence ratio: 1.02

TGGCGCGTAA
switch fluorescence ratio: 1.03

TGTGTAGTGG
switch fluorescence ratio: 0.983

GTGAATTATT
switch fluorescence ratio: 1.01

AGTAGCAGAA
switch fluorescence ratio: 1.05

TTCTGGAAAG
switch fluorescence ratio: 1.03

GGCACTAGGA
switch fluorescence ratio: 1.08

CTCCGAAGAG
switch fluorescence ratio: 3.99

CGAATTTTGT
switch fluorescence ratio: 0.981

AAAAACCATG
switch fluorescence ratio: 1.08

GGGAGCAGTT
switch fluorescence ratio: 1.04

TATCTTTACT
switch fluorescence ratio: 0.975

TATAACTGGG
switch fluorescence ratio: 0.953

ATGCGGGGG
switch fluorescence ratio: 0.916

CGAACGAGCG
switch fluorescence ratio: 0.992

CTGGATCGAG
switch fluorescence ratio: 1.01

TACGAAAGT
switch fluorescence ratio: 1.04

AGCTCCTGT
switch fluorescence ratio: 1.01

CTATATCTGG
switch fluorescence ratio: 0.977

GGATAATCGG
switch fluorescence ratio: 0.966

TTGGACTGAA
switch fluorescence ratio: 1.01

TAGAGGGACC
switch fluorescence ratio: 1.02

TATTACCTCG
switch fluorescence ratio: 0.975

TGTAATGTAA
switch fluorescence ratio: 1

AAAGAGTCGC
switch fluorescence ratio: 1.01

TGGATAGGTT
switch fluorescence ratio: 1.01

GTATAAAATG
switch fluorescence ratio: 1

CCCGAAAGTG
switch fluorescence ratio: 1.19

ATATGGTTTA
switch fluorescence ratio: 1.01

GCGTGTTGCA
switch fluorescence ratio: 1.05

AATCAAAACC
switch fluorescence ratio: 1.02

GAAGAAAGTA
switch fluorescence ratio: 0.965

AAAGAGCCGT
switch fluorescence ratio: 0.992

ATATCAGGAG
switch fluorescence ratio: 1.01

GCACTCCGCG
switch fluorescence ratio: 4.25

ATTGTACACC
switch fluorescence ratio: 1.05

CAGATTTCCG
switch fluorescence ratio: 0.989

AATCTAAAAC
switch fluorescence ratio: 1.03

AGCTTTTTGG
switch fluorescence ratio: 0.975

CTGTCACTA
switch fluorescence ratio: 0.989

CGAGCCGGA
switch fluorescence ratio: 1

AATTGTGCAC
switch fluorescence ratio: 1.02

TGTGTAGCGT
switch fluorescence ratio: 1.01

GGTGAGAGCT
switch fluorescence ratio: 1.07

CGCTGAGCGT
switch fluorescence ratio: 0.964

GGTTGAGAAG
switch fluorescence ratio: 1.03

CTTCACGCAG
switch fluorescence ratio: 1.11

CGCAGCGCCG
switch fluorescence ratio: 0.988

GGCGTGCGCG
switch fluorescence ratio: 0.985

TTCTCGCTGC
switch fluorescence ratio: 1.62

ATTAAACTGT
switch fluorescence ratio: 1

TTAAATTCTA
switch fluorescence ratio: 0.996

CAGTTGGTGC
switch fluorescence ratio: 1.1

GCTAATGCAA
switch fluorescence ratio: 0.98

TGAAACCCC
switch fluorescence ratio: 1.55

ATCGGTCAAA
switch fluorescence ratio: 0.973

CTACATATGG
switch fluorescence ratio: 1.02

CTCGTATGGG
switch fluorescence ratio: 1.03

TGGATCGGGC
switch fluorescence ratio: 1.01

TGTTAACCCG
switch fluorescence ratio: 1.01

AGTGCACCAT
switch fluorescence ratio: 1.03

TTACATTAAG
switch fluorescence ratio: 1.05

ATCAGTACGC
switch fluorescence ratio: 1.04

CGGGACCGAG
switch fluorescence ratio: 1.01

GGCCGATACC
switch fluorescence ratio: 1.07

TCAGCCAA
switch fluorescence ratio: 1.02

CGGCGGCTTG
switch fluorescence ratio: 1.01

TCATCCATTC
switch fluorescence ratio: 1.13

GATATCGGCC
switch fluorescence ratio: 1

GAGGGCCGAT
switch fluorescence ratio: 1.01

TTTCGCAAAC
switch fluorescence ratio: 2.95

CAGTAGCTTC
switch fluorescence ratio: 2.15

CTCGGGCTAA
switch fluorescence ratio: 1.09

ACGGATGAAG
switch fluorescence ratio: 0.976

CTGTCTGGCA
switch fluorescence ratio: 0.991

CGCATCGTCG
switch fluorescence ratio: 1.02

TATTGCGGAC
switch fluorescence ratio: 1.03

CTTCGTATCT
switch fluorescence ratio: 1.65

TACCTGGAAA
switch fluorescence ratio: 1.04

TTCTGCTATA
switch fluorescence ratio: 1.19

TGACGAAGGC
switch fluorescence ratio: 0.951

AGAACCCATC
switch fluorescence ratio: 0.979

CGACGTGTGC
switch fluorescence ratio: 2.65

GCTCGTAGAG
switch fluorescence ratio: 1

GTGCACGTAT
switch fluorescence ratio: 1.02

ATTCATCTA
switch fluorescence ratio: 1

CAACCCGG
switch fluorescence ratio: 1.02

CATCGCCTTC
switch fluorescence ratio: 1.23

AGGAACGTGT
switch fluorescence ratio: 0.994

TAAAAGTTTC
switch fluorescence ratio: 1.08

TTTCTTCATA
switch fluorescence ratio: 1.02

CGCCTCAATG
switch fluorescence ratio: 1.53

AACCTGTACA
switch fluorescence ratio: 1.1
